# Results published in PMC3687523 (Biochemical pharmacology, 2013).
# System: Male adult Wistar rats
# Conditions: 30 min after 40 μg i.c.v. propafenone, no opioid; n=8; baseline TFL 2.96+0.12 sec, no significant difference
smiles,measurement,value
CCCNCC(O)COc1ccccc1C(=O)CCc1ccccc1 (stereo not shown) [propafenone],tail-flick latency (TFL) after inhibitor alone (mean+SEM),2.75+0.23 sec
